In PubChem BioAssay (Tox21):
“And” between values parts separate entries of the source, which are not always exact repeats. Equal entries are not always repeated. Inconclusive means that the source gave no clear call. Such entries were picked first, then a sample of the others. Potencies of inconclusive entries are doubtful fits and often do not repeat. More than one record can exist for a structure, and the calls need not agree. The source made the active and inactive calls. Calls come from the whole dose curve; as a rule, active = well fitted inhibition curve with a large enough effect in the repeat runs; inconclusive = weak or mixed curves; inactive = no such curve, though single readings can be large or run the other way.

Each compound was assayed against Cytochrome P450 1A2 (Homo sapiens) (UniProt P05177) (assay: Cytochrome P450 Family 1 Subfamily A Member 2 (CYP1A2) small molecule antagonists: luciferase reporter qHTS assay (AID 1671199; note: nearly all actives have a fitted effect of over 50% in size)). Conditions: P450-Glo CYP1A2 enzyme, luciferin luminescence, 1 h; series mostly up to 115 µM; activity change, negative = inhibition: at the top concentration.
From the text: National Center for Advancing Translational Sciences [NCATS]
U.S. Environmental Protection Agency [EPA]
National Institutes of Environmental Health Sciences [NIEHS]
National Toxicology Program [NTP]
U.S. Food and Drug Administration [FDA]
Cytochrome P450 (CYP) enzymes are membrane-bound hemeproteins that play a key role in metabolism of drugs and xenobiotics. Evaluation of the effect of chemicals on CYP isozymes is useful to minimize the adverse drug reactions and toxicities in drug development process. Tox21 chemicals were tested for their effect on CYP enzyme activities by using P450-Glo (TM) screening systems (Promega Corporation, Madison, WI). These systems provide a luminescent method containing proluciferin substrates and are converted to luciferin products by CYP isozymes. The luciferin products formed are detected with a luciferin detection reagent, and the amount of light produced is proportional to CYP activity. P450-Glo (TM) CYP1A2 screening system (Catalog. No. V9770) was used to detect the compounds that interfere in CYP1A2 activity. The positive control compound used for CYP1A2 assay is furafylline (Sigma-Aldrich, St. Louis, MO).
Tox21 Assay Protocol Summary:
Two ul of enzyme-substrate mix was dispensed into medium binding white/solid 1536-well plates (Greiner Bio-One North America Inc., Monroe, NC) using a BioRaptr Flying Reagent Dispenser (FRD, Beckman Coulter, Brea, CA). Compounds dissolved in DMSO and positive control (furafyllline) were transferred to the assay plates at 23 nl using a Pintool station (Wako, San Diego, CA). The assay plates were incubated at room temperature for 10 min. Then 2 ul of NADPH regeneration solution was added to each well of the assay plates using an FRD and incubated at room temperature for 1 h. The reaction was stopped by adding 4 ul of detection reagent using an FRD and after 20 min incubation at room temperature the luminescence signal was measured using a ViewLux plate reader (Perkin Elmer, Shelton, CT). Data were expressed as relative luminescence units.
% is set by controls: 0 for no effect and ±100 for the full control effect; potency is the fitted concentration of half-maximal effect; tags give direction and shape of the fitted curve.

Chain of UniProt P05177 (P05177 whole entry, looked up): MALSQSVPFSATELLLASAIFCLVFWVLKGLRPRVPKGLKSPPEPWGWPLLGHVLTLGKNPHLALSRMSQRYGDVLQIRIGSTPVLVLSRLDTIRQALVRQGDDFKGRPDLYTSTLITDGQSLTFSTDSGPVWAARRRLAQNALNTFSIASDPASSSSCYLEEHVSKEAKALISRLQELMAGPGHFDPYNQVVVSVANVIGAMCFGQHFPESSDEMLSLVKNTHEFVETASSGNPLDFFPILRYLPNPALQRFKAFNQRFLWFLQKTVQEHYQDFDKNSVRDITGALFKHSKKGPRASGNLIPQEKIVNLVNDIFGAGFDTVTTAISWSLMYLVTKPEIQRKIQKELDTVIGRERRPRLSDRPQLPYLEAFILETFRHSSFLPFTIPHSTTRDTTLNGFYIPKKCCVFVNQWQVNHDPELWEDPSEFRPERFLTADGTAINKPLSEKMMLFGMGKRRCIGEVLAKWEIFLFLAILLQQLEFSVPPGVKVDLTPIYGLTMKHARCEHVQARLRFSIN

Structure (SMILES)	Potency	activity change, negative = inhibition
Oc1ccc(-c2ccc(O)cc2)cc1	active: 28.4 µM	–
O=C(O)CCCCCCCC(=O)O	inconclusive: 70.7 µM [inhibitor]	–
CCCCCCOC(=O)CCCCC	inconclusive: 56.4 µM [inhibitor, partial curve, poor fit]	–
NC(=O)CC[C@@H]1NC(=O)[C@H](Cc2ccccc2)NC(=O)[C@H](Cc2ccc(O)cc2)NC(=O)CCSSC[C@@H](C(=O)N2CCC[C@H]2C(=O)N[C@@H](CCCN=C(N)N)C(=O)NCC(N)=O)NC(=O)[C@H](CC(N)=O)NC1=O	inconclusive: 36.3 µM [inhibitor, partial curve, poor fit]	–
Cc1ccc(S(N)(=O)=O)cc1	inconclusive: 79.2 µM [inhibitor, partial curve, poor fit] and inactive	–
CC(C)=CCC/C(C)=C/CC/C(C)=C/CCC(=O)OC/C=C(\C)CCC=C(C)C	–	inactive: -5.91% [at 53 µM]
O=C(O)c1cccc(C(=O)O)c1	inconclusive: 64.3 µM [inhibitor, partial curve] and inconclusive: 79.6 µM [inhibitor, single point]	–
O=C(O)C[C@H](NC(=O)OCc1ccccc1)C(=O)O	–	inactive: -19.2%
c1ccc2sc(SN3CCOCC3)nc2c1	inconclusive: 28.8 µM [inhibitor, partial curve]	–
COc1cccc(OC)c1C(=O)O	inconclusive: 39.9 µM [inhibitor, partial curve]	–
CCCC(CCC)C(=O)O	active: 5.62 µM and inconclusive: 79.6 µM [inhibitor, partial curve, poor fit] and inactive	–
Cc1ncc(CO)c(CO)c1O	inconclusive: 31.7 µM [inhibitor, full curve]	–
Nc1ccc(O)cc1	inconclusive: 41.5 µM [inhibitor, partial curve] and inconclusive: 32.3 µM [inhibitor, partial curve]	–
c1cc(C(c2ccc(OCC3CO3)cc2)C(c2ccc(OCC3CO3)cc2)c2ccc(OCC3CO3)cc2)ccc1OCC1CO1 (stereo not given)	inconclusive: 52.2 µM [inhibitor, partial curve, poor fit]	–
CC1(C)O[C@@H]2C[C@H]3[C@@H]4CCC5=CC(=O)C=C[C@]5(C)[C@@]4(F)[C@@H](O)C[C@]3(C)[C@]2(C(=O)CO)O1	inconclusive: 63.7 µM [inhibitor, partial curve, poor fit] and inactive	–
CC(C)c1cccc(C(C)C)c1N	active: 20 µM	–
Nc1ccc([N+](=O)[O-])cc1O	active: 42.3 µM	–
Cc1ccccc1S(N)(=O)=O	inconclusive: 39.9 µM [inhibitor, partial curve]	–
CN1CCCC1=O	inactive	–
[Cl][In]([Cl])[Cl]	inconclusive: 29.1 µM [inhibitor, single point]	–

Structure (SMILES)	Potency	activity change, negative = inhibition
CSc1cnc(C)cn1	inconclusive: 81.7 µM [inhibitor, partial curve, poor fit]	–
COc1c(N2C[C@@H]3CCCN[C@@H]3C2)c(F)cc2c(=O)c(C(=O)O)cn(C3CC3)c12	–	inactive: 7.52% [at 53 µM]
CCCc1ccc(OC)cc1	inconclusive: 45.1 µM [inhibitor, partial curve]	–
CCCCCCOC(C)=O	inactive and inconclusive: 35.6 µM [inhibitor, partial curve]	–
CCCCCCC(CCCCCCCCCCC(=O)OCC(COC(C)=O)OC(C)=O)OC(C)=O (stereo not given)	inconclusive: 13.8 µM [inhibitor, partial curve]	–
C[C@H]1C[C@H](O)c2ccsc2S1(=O)=O	inconclusive: 17.4 µM [inhibitor, partial curve]	–
CCCCCCCCCCCCCCCC	–	inactive: -21%
CC(C)CCCCCCCOC(=O)CCCCC(=O)OCCCCCCCC(C)C	inconclusive: 46.5 µM [inhibitor, partial curve]	–
NCCO	inconclusive: 63.2 µM [inhibitor, partial curve]	–
C1=CC2C3C=CC(C3)C2C1 (stereo not given)	active: 57 µM	–
CC(=O)C1=C(C)[C@@H]2C[C@@]3(C1)[C@H](C)CC[C@H]3C2(C)C	inconclusive: 52.6 µM [inhibitor] and inconclusive: 31.7 µM [inhibitor, full curve]	–
Cc1c(F)c(N2CCNC(C)C2)cc2c1c(=O)c(C(=O)O)cn2C1CC1 (stereo not given)	–	inactive: -22.1% [at 53 µM]
CC1(CN2CCC(n3c(=O)[nH]c4ccccc43)CC2)OCc2ccccc2-n2cccc21 (stereo not given)	inconclusive: 30.9 µM [inhibitor, partial curve, poor fit]	–
O=c1[nH]c(=O)n([C@H]2CCCO2)cc1F	inactive	–
O=Cc1ccccc1O	inconclusive: 39.9 µM [inhibitor, partial curve, poor fit]	–
NC(=O)c1ccccc1O	inconclusive: 54.8 µM [inhibitor, partial curve] and inconclusive: 39.9 µM [inhibitor, partial curve] and inactive	–
CC1=CCC(C(C)(C)O)CC1 (stereo not given)	inconclusive: 63.7 µM [inhibitor, partial curve, poor fit] and inactive	–
O=C(OC(=O)c1ccccc1)c1ccccc1	inconclusive: 81.1 µM [inhibitor, partial curve, poor fit]	–
C=C(C)[C@@H]1CCC2=CCC[C@@H](C)[C@]2(C)C1	–	inactive: -25.3%
C=CC(C)(CCC=C(C)C)OC(=O)CC(C)C (stereo not given)	inconclusive: 71 µM [inhibitor, partial curve, poor fit]	–
